Laboratory results reported in publication PMC6203356, “HJURP antagonizes CENP-A mislocalization driven by the H3.3 chaperones HIRA and DAXX” (PLoS ONE, 2018).

Molecular target: T1, CENP-A (endogenous, soluble pre-assembly fraction) (human (endogenous in SW480), UniProt P49450)
T1 construct: Histone H3 variant CENP-A, endogenous in human colon cancer cells (SW480); also called CENH3; CpA; source: endogenous, SW480 soluble fraction (PBS with 0.5% NP-40 supernatant)
Experiment: co-IP; CENP-A IP (ACA serum) or mock IP from the soluble fraction (PBS, 0.5% NP-40) of SW480 cells treated 72 hours with control or HJURP siRNA; Western blot for the chaperones
Settings: partners not purified

T1 sequence (P49450 whole entry): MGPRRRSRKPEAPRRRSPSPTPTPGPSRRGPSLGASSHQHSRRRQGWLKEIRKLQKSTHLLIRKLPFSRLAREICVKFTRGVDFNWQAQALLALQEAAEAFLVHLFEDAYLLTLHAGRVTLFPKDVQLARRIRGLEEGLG

B1: DAXX (endogenous) (natural protein, human (endogenous in SW480))
chain: MATANSIIVLDDDDEDEAAAQPGPSHPLPNAASPGAEAPSSSEPHGARGSSSSGGKKCYKLENEKLFEEFLELCKMQTADHPEVVPFLYNRQQRAHSLFLASAEFCNILSRVLSRARSRPAKLYVYINELCTVLKAHSAKKKLNLAPAATTSNEPSGNNPPTHLSLDPTNAENTASQ[skipping about 200 residues]ERKKRRARLQGTSSHSADTPEASLDSGEGPSGMASQGCPSASRAETDDEDDEESDEEEEEEEEEEEEEATDSEEEEDLEQMQEGQEDDEEEDEEEEAAAGKDGDKSPMSSLQISNEKNLEPGKQISRSSGEQQNKGRIVSPSLLSEEPLAPSSIDAESNGEQPEELTLEEESPVSQLFELEIEALPLDTPSSVETDISSSRKQSEEPFTTVLENGAGMVSSTSFNGGVSPHNWGDSGPPCKKSRKEKKQTGSGPLGNSYVERQRSVHEKNGKKICTLPSPPSPLASLAPVADSSTRVDSPSHGLVTSSLCIPSPARLSQTPHSQPPRPGTCKTSVATQCDPEEIIVLSDSD
notes: DAXX, H3.3 chaperone, endogenous in SW480 cells; also called H3.3 chaperone DAXX; source: endogenous, SW480 soluble fraction
- fold increase in the amount bound to CENP-A after HJURP knockdown against control siRNA: 1.5 fold
